Drawing on paper PMC3466257, “PDGF Suppresses the Sulfation of CD44v and Potentiates CD44v-Mediated Binding of Colon Carcinoma Cells to Fibrin under Flow” (PLoS ONE, 2012), this text covers Kd, koff and kon for 2 molecules.

For orientation: Kd means the concentration at which binding is half-saturated. For orientation: koff means the first-order rate constant of dissociation. Read a high koff as a short-lived complex. Broadly, the kon is the rate constant with which the complex forms.

This test has as its target T1, soluble fibrin fragment (β15–66)2.
T1 construct: fibrin β chain, residues 15-66, as a dimer; also called Fibrin (β15–66)2 fragment
Briefly: SPR; BIAcore 3000; CD44 in DMPC proteoliposomes immobilised on an L1 chip, pure liposomes as reference; fibrin fragment (β15–66)2 injected at 0, 50, 120, 180 and 240 nM in HBS at 40 µl/min; global fit to a 1:1 Langmuir model, Kd = koff/kon. To be noted: both partners purified.

B1: CD44 immunopurified from untreated LS174T colon carcinoma cells (receptor)
chain: [about 200 residues cut from this listing]ATTLMSTSATATETATKRQETWDWFSWLFLPSESKNHLHTTTQMAGTSSNTISAGWEPNEENEDERDRHLSFSGSGIDDDEDFISSTISTTPRAFDHTKQNQDWTQWNPSHSNPEVLLQTTTRMTDVDRNGTTAYEGNWNPEAHPPLIHHEHHEEEETPHSTSTIQATPSSTTEETATQKEQWFGNRWHEGYRQTPKEDSHSTTGTAAASAHTSHPMQGRTTPSPEDSSWTDFFNPISHPMGRGHQAGRRMDMDSSHSITLQPTANPNTGLVEDLDRTGPLSMTTQQSNSQSFSTSHEGLEEDKDHPTTSTLTSSNRNDVTGGRRDPNHSEGSTTLLEGYTSHYPHTKESRTFIPVTSAKTGSFGVTAVTVGDSNSNVNRSLSGDQDTFHPSGGSHTTHGSESDGHSHGSQEGGANTTSGPIRTPQIPEWLIILASLLALALILAVCIAVNSRRRCGQKKKLVINSGNGAVEDRKPSGLNGEASKSQEMVHLVNKESSETPDQFMTADETRNLQNVDMKIGV
modifications: carries sulfated chondroitin sulfate and dermatan sulfate glycosaminoglycan chains
In the case of B1, the Kd came to 103 nM, the koff worked out at 0.0561 s⁻¹ and the kon was 546000 M⁻¹ s⁻¹.

B2: CD44 immunopurified from PDGF-treated LS174T colon carcinoma cells (receptor)
chain: [about 200 residues cut from this listing]ATTLMSTSATATETATKRQETWDWFSWLFLPSESKNHLHTTTQMAGTSSNTISAGWEPNEENEDERDRHLSFSGSGIDDDEDFISSTISTTPRAFDHTKQNQDWTQWNPSHSNPEVLLQTTTRMTDVDRNGTTAYEGNWNPEAHPPLIHHEHHEEEETPHSTSTIQATPSSTTEETATQKEQWFGNRWHEGYRQTPKEDSHSTTGTAAASAHTSHPMQGRTTPSPEDSSWTDFFNPISHPMGRGHQAGRRMDMDSSHSITLQPTANPNTGLVEDLDRTGPLSMTTQQSNSQSFSTSHEGLEEDKDHPTTSTLTSSNRNDVTGGRRDPNHSEGSTTLLEGYTSHYPHTKESRTFIPVTSAKTGSFGVTAVTVGDSNSNVNRSLSGDQDTFHPSGGSHTTHGSESDGHSHGSQEGGANTTSGPIRTPQIPEWLIILASLLALALILAVCIAVNSRRRCGQKKKLVINSGNGAVEDRKPSGLNGEASKSQEMVHLVNKESSETPDQFMTADETRNLQNVDMKIGV
modifications: sulfation reduced by 46.6±6% relative to untreated controls, primarily on chondroitin and dermatan sulfate chains
Take B2: the Kd was determined as 6.71 nM, the koff turned out to be 0.0044 s⁻¹ and the kon worked out at 656000 M⁻¹ s⁻¹.
